Source: PubChem BioAssay AID1963576 (National Center for Advancing Translational Sciences (NCATS), 2024)
About 60 (0.1%) of roughly 46,000 compounds were called active. Another 3% or so got no clear call; they are omitted. Calls come from the whole dose curve; as a rule, active = well fitted inhibition curve with a large enough effect; inconclusive = small, poorly fitted or top-dose-only effect; inactive = no such curve, though single readings can be large or run the other way. This is one part of the list.

test: Primary qHTS assay for Inhibitors of ovarian cancer metastasis using an organotypic tumor microenvironment (TME) model.; note: nearly all actives have a fitted effect of over 65% in size;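 for activity change, negative = inhibition: plate controls were DMSO wells for no effect and tomatine positive control wells for full effect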; details: SKOV3ip1-GFP adhesion/invasion on 3D omental model, fluorescence; series mostly up to 45.8 µM; activity change, negative = inhibition: at the top concentration
Method in brief: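 qHTS, 4-pt dose (0.36-46 umol/L); SKOV3ip1-GFP, 1,200 cells/well, no FBS; primary omental fibroblast/mesothelial co-culture 48 h pre-grown; 2 h RT + 16 h 37 C; PBS wash, 4% PFA; GFP count 488/509 nm.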

Activity change, negative = inhibition, inactive:
Cc1ccccc1CN1c2ccccc2-c2nc(SCC(=O)NCc3ccccc3)ncc2S1(=O)=O -1.97%, CC(C)C(=O)NCC(c1ccc2c(c1)OCO2)N1CCN(c2ccccc2)CC1 (stereo not drawn) 3.03%, Cc1c(C(=O)NCCc2ccc(Cl)cc2)sc2nc3n(c(=O)c12)CCCC3 -6.59%, O=C(C=CC=Cc1ccc2c(c1)OCO2)N1CCCCC1 -25.2%, O=C(Nc1c(C(=O)N2CCN(c3ccccc3)CC2)oc2ccccc12)c1ccco1 -28.4%, Cc1cccn2c(=O)c(C(=O)NCCc3ccccc3)c(O)nc12 -4.55%, Cc1cccc(-c2noc(CSc3nc(-c4ccc(F)cc4)cc(=O)[nH]3)n2)c1 7.06%, Cc1ccc2nc(CNC(=O)c3ccccc3)[nH]c2c1 2.58%, N#Cc1cc(NC(=O)Nc2nnc(-c3ccncc3)s2)ccc1-c1cn[nH]c1 -5.02%, COc1ccc(CNC(=O)c2cc(Nc3ccc(C)cc3C)nc3ccccc23)cc1 17.4%, CCCN(CCC)S(=O)(=O)c1ccc2c(c1)N(CC(=O)NC(C)c1ccccc1)C(=O)CS2 (stereo not drawn) -20.9%, Cc1ccc(CSC2=Nc3ccccc3C3=NC(CC(=O)NC4CCCCC4)C(=O)N23)cc1 (stereo not drawn) 23%, O=C(O)C=Cc1ccc(Cn2ccnc2)cc1 -9.18%, COc1cccc(-n2ccn(CC(=O)c3ccc(F)cc3)c(=O)c2=O)c1 -4.63%, Cc1ccc(NC(=O)C(=O)c2cc(C)n(-c3ccc(F)cc3)c2C)cc1C 0.184%, CCOc1ccc(NC(=O)C2CCCN(S(=O)(=O)c3ccc4[nH]c(=O)ccc4c3)C2)cc1 (stereo not drawn) 3.31%, CC(=O)c1ccc(N2C(=O)N(CC(=O)c3ccc(C)cc3)c3ccccc3S2(=O)=O)cc1 11%, Cc1ccc2nc(-c3ccc(NC(=O)COc4ccccc4)cc3)sc2c1 -6.25%, Cc1c(Cl)cccc1NC(=O)CCN1C(=O)c2ccccc2Sc2ncccc21 2.72%, COC(=O)c1c(NC(=O)CS(=O)(=O)c2ccc(C)cc2)sc2c1CCCC2 -15.6%, Cc1ccc2oc(=O)c3cnn(CC(=O)N4CCN(c5ccccc5)CC4)c3c2c1 0.827%, CCC(Sc1nc2ccccc2c2nc(-c3ccccc3)nn12)C(=O)Nc1cccc(OC)c1 (stereo not drawn) -0.987%, O=C(Nc1ccc(F)cc1F)c1cc2nc(-c3ccco3)cc(C(F)(F)Cl)n2n1 -1.23%, CCC(C)NC(=O)CSc1nc2n[nH]c(C)c2c(=N)n1-c1ccc(C)c(Cl)c1 (stereo not drawn) -0.588%, O=C(Nc1cccc(Cl)c1)c1ccc(F)c(S(=O)(=O)N2CCC3(CC2)OCCO3)c1 -10.5%, Cc1cc(NC(=O)CCNS(=O)(=O)c2ccc3c(c2)oc(=O)n3C)ccc1Br 10.6%, CCN(CC)C(=O)c1cc(-c2ccc(Cl)cc2)on1 -14.5%, CCN(CC)S(=O)(=O)c1ccc2c(c1)c(=O)c(C(=O)N1CCN(c3cccc(C)c3)C(C)C1)cn2C (stereo not drawn) 7.64%, Cc1ccc(CNC(=O)CN(c2ccc(C)cc2)S(=O)(=O)c2c(C)nn(C)c2C)cc1 -7.77%, Cc1ccc2c(=O)cc(C(=O)Nc3ccc(S(=O)(=O)N(C)Cc4ccccc4)cc3)oc2c1 -15.6%, COc1ccc(NC(=O)CCn2c(=O)c3cccn3c3ccccc32)c(OC)c1 1.49%, COC(=O)c1cnn2c(C)c(Cc3c(C)cc(C)cc3C)c(C)nc12 1.1%, O=C(Nc1nnc(S(=O)(=O)N2CCCc3ccccc32)s1)c1ccccc1 3.98%, COc1ccc(N2CC(NC(=O)C3CC3)CC2=O)cc1OC (stereo not drawn) 6.36%, CC(=O)c1ccc(NC(=O)CN(C)S(=O)(=O)c2cccc3nsnc23)cc1 -4.08%, Cc1cccc(N2CCN(C(=O)CCn3c(=O)c4cccn4c4cccnc43)CC2)c1C -1.86%, O=C(COc1ccccc1)Nc1cccc(-c2cn3cccnc3n2)c1 0.913%, CCOc1ccc(N(C)C(CNS(=O)(=O)c2ccccc2)c2ccccc2)cc1 (stereo not drawn) -8.6%, Fc1cccc(-n2ncc3c2ncn2nc(-c4ccccc4Cl)nc32)c1 12.2%, CC(C)CCn1c(=O)c2sccc2n2c(CCCC(=O)NCc3ccc(F)cc3)nnc12 -4.59%, CCc1ccccc1NC(=O)c1cc(S(=O)(=O)N2CCCc3ccccc32)ccc1F 2.81%, Cc1c(C(=O)Nc2ccc(F)cc2)sc2nc[nH]c(=O)c12 23.9%, CCOc1ccc(C(=O)Nc2cc(-c3nc4ccccc4s3)ccc2OC)cc1 4.22%, COc1ccccc1N1CCN(C(=O)c2cc(-c3ccccc3O)on2)CC1 3.99%, O=C(COc1ccccc1[N+](=O)[O-])Nc1ccc(-c2nc3ccccc3s2)cc1 -11.3%, COc1ccc(CCNC(=O)c2ccc3c(c2)N(Cc2ccc(F)cc2)CCS3)cc1OC -0.239%, CCc1nn(CC(=O)NCc2ccccc2Cl)c(=O)c2cccn12 2.11%, COc1ccccc1-n1c(-c2ccc(C)cc2)cn2c3c(=O)n(C)c(=O)n(C)c3nc12 3.36%, O=S(=O)(c1ccccc1)c1nc(-c2cccs2)oc1SCc1ccc(F)cc1 13.2%, Cc1nc(SCC(=O)Nc2ccccc2F)[nH]c(=O)c1Cc1ccccc1 -17.1%, COC(=O)CCNC(=O)N1CCN(c2nnc(C)c3c(C)n(-c4ccc(Cl)cc4)nc23)CC1 -4.24%, Cc1ccc(NC(c2ccc(Cl)cc2)c2nnc(-c3cccc(F)c3)o2)cc1C (stereo not drawn) 0.692%, COC(=O)c1ccc(NC(=O)CN2C(=O)c3cccc4cccc2c34)cc1 11.9%, COc1ccc(-c2cn3nc(SCC(=O)Nc4ccc(C)c(Cl)c4)ccc3n2)cc1 -8.11%, O=S(=O)(NCC(Nc1ccc(Cl)cc1)c1ccccc1)c1ccccc1 (stereo not drawn) 1.87%, COc1ccc(OC)c(CCNC(=O)c2c3c(nc4ccccc24)C(=O)N(C2CCCCC2)C3)c1 -13.4%, COc1cccc(Nc2nc3cc(Cl)c(Cl)cc3nc2-n2nc(C)cc2C)c1 -7.83%, CCOc1ccc(S(=O)(=O)c2cn(Cc3cc(C)ccc3C)c3ccc(OCC)cc3c2=O)cc1 0.974%, COc1ccccc1NC(=O)C1=C(C)Nc2nc(SCc3ccccc3)nn2C1c1cccnc1 (stereo not drawn) 1.38%, O=C(Nc1ccccc1)C1CCN(S(=O)(=O)c2ccc3[nH]c4c(c3c2)CCCCC4)CC1 0.964%, CCc1c(C)sc2c1CCN(C(=O)Nc1ccc(F)c(Cl)c1)C2c1ccc(F)cc1 (stereo not drawn) -20.5%, COc1ccccc1CNC(=O)c1cnc(N2CCCC2)nc1C -5.3%, CCCOC(=O)c1ccc(Cn2nnc3sc4c(c3c2=O)CCC(C)C4)cc1 (stereo not drawn) 0.641%, CCOc1ccc(NC(=O)c2cc(S(=O)(=O)N3CCOCC3)ccc2F)cc1 20.8%, COc1ccccc1N(CC(=O)NCCSCc1cccc(Cl)c1)S(C)(=O)=O -14.1%, O=C(C1CCC(Cn2c(=O)c3sccc3n(Cc3ccccc3F)c2=O)CC1)N1CCCCC1 (stereo not drawn) 5.59%, Cn1c(=O)c2c(c3ccccc31)OC(=O)CC2c1cccc(F)c1 (stereo not drawn) 7.84%, CCOc1ccc(NC(=O)c2cc3c(=O)n(Cc4cccs4)ccc3nc2C)cc1 2.81%, CC(C)NC(=O)C1CCN(C(=O)c2cc3sccc3n2Cc2ccc(Cl)cc2)CC1 -2.66%, Cc1cc(C)c(NC(=O)c2ncoc2-c2ccco2)c(C)c1 -4.2%, CCCCNC(=O)C1CCN(S(=O)(=O)c2ccc3c(ccn3CC)c2)CC1 18.2%, CCN(CC)CCSc1nnc2c3cc(F)ccc3n(C)c2n1 -26.1%

outcome, inactive:
COc1ccc(CCNC(=O)C(=O)NCC(c2ccc3c(c2)OCO3)N2CCOCC2)cc1OC (stereo not drawn), CCOc1ccc(NC(=O)c2oc3ccccc3c2NC(=O)c2c(F)cccc2F)cc1, COc1ccccc1N1CCN(C(=O)CSc2nc3ccccc3nc2Cc2ccccc2)CC1, COc1ccccc1N1CCN(C(=O)c2cc(-c3ccc(F)cc3)on2)CC1, CCN(c1cccc(C)c1)S(=O)(=O)c1nnc(NC(=O)c2ccccc2Cl)s1, CCN(C(=O)Cn1nnc2sc(-c3ccccc3)cc2c1=O)c1cccc(C)c1, CCC1CN(C(=O)Nc2cccc3c2CCCC3)c2ccccc2O1 (stereo not drawn), CCOC(=O)C1CCCN(CCC(=O)Nc2cccc(C)c2)C1 (stereo not drawn), CCCCn1c(C(C)NC(=O)c2ccccc2)nc2ccccc21 (stereo not drawn), COc1ccccc1-c1cc2nc(C)c(CCC(=O)NCc3cccc(Cl)c3)c(C)n2n1, O=C(Cn1c(=O)c2cccn2c2ccc(F)cc21)N1CCN(c2ccc(F)cc2)CC1, COc1ccc(C2=C(Nc3ccc(C)c(C)c3)c3ccccc3C2=O)cc1, N#Cc1cccc(NC(=O)c2cc3c(s2)-c2ccc(Cl)cc2SC3)c1, CCOc1ccccc1CNC(=O)c1cccn1-c1nnc(N2CCCCC2)s1, Cc1ccn2c(=O)c(C(=O)NC(C)c3ccccc3)c(O)nc2c1 (stereo not drawn), COc1ccc(NC(=O)c2cnc[nH]2)cc1, COc1ccc(S(=O)(=O)c2cc(NS(=O)(=O)c3ccc(Cl)cc3)c(C)c(C)c2O)cc1, O=C(CSc1nc2c([nH]c3ccccc32)c(=O)n1-c1ccc(Cl)cc1)N1CCCC1, Cc1cc(C)c(NC(=O)COc2ccc3c(C)cc(=O)oc3c2)c(C)c1, COc1ccc(-c2noc(C3CC(=O)N(c4ccccc4)C3)n2)c(OC)c1 (stereo not drawn), CCN(CCCNC(=O)c1cc(Nc2ccccc2OC)nc2ccccc12)c1cccc(C)c1, COc1ccc(NC(=O)Cn2nc(C)c3nn(-c4ccc(Cl)cc4)c(C)c3c2=O)cc1, CCOC(=O)Cn1c(=O)oc2cc(S(=O)(=O)N3CCN(c4ccc(C(C)=O)cc4)CC3)ccc21, COc1ccc(CCNC(=O)CCn2c(=O)c3ccccc3n(CC(=O)Nc3ccc(C)cc3C)c2=O)cc1OC, CCOc1ccc(-c2nc(Cn3c(=O)cc(C)c4c(C)nn(-c5ccc(C)cc5)c43)c(C)o2)cc1, O=C(Nc1ccc(Cl)cc1)N1CCN(c2ccc3nnc(-c4ccccc4)n3n2)CC1
